Results on 33 molecules are retold here after the supplement of paper PMC7266297.

One assay deals with KB-3-1. Kind of assay: growth inhibition relative to DMSO control (SRB); cervical cancer cells: KB-3-1 is the parent and KB-V1 overexpresses MDR1; SRB is the sulforhodamine B stain; higher = more growth inhibition. Conditions: 1 µM; 72 h.
Another assay relates to KB-V1. The assay is described as above. Conditions: 1 µM; 72 h.

Structures can show the parent of a compound that is named as a salt. This is one part of the list. Repeats are few or missing, and single values can be far off. A value given as a limit tells only on which side of the number the result lay.
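Note: Read-out is SRB optical density at 490 nm, with the control being wells given 0.5% DMSO vehicle, and compound added one day after cells were plated.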

Take `CN1c2ccccc2C(NCCCCCCC(=O)O)c2ccc(Cl)cc2S1(=O)=O` (stereo unspecified) [Tianeptine sodium]: the results for the growth inhibition in the assay on KB-3-1 and in the assay with KB-V1 were 10.2% and 34.4%, respectively.
For `CN1CCc2cc3c(cc2C1C1OC(=O)c2c1ccc1c2OCO1)OCO3` (single isomer, unassigned; (+)) [(+)-Bicuculline] the same measures were 5.93% and 14.7%.
Consider `C[C@](O)(COc1ccc(C#N)cc1)C(=O)Nc1ccc(C#N)c(C(F)(F)F)c1`, for which the growth inhibition in the assay with KB-3-1 worked out at 31%; in the assay on KB-V1 it was 36.7%.
For `CCc1c(C(=O)C(N)=O)c2c(OCC(=O)O)cccc2n1Cc1ccccc1` the same measures were 5.13% and 19.8%.
With `C[C@]12N[C@H](Cc3ccccc31)c1ccccc12` [MK-801 (Dizocilpine)], the growth inhibition in the assay on KB-3-1 and in the assay on KB-V1 was 15.7% throughout.
With `C=CCN1CC[C@]23c4c5ccc(O)c4O[C@H]2C(=O)CC[C@@]3(O)[C@H]1C5` [Naloxone HCl], the growth inhibition with KB-3-1 is under 0%; with KB-V1 it was 8.05%.
Turning to `O=C1CC[C@@]2(O)[C@H]3Cc4ccc(O)c5c4[C@@]2(CCN3CC2CC2)[C@H]1O5` [Naltrexone HCl], the growth inhibition in the assay with KB-3-1 is under 0%; with KB-V1, 21.5%.
For `O=C1CCC[C@@H]2[C@H]3CCCN4CCC[C@@H](CN12)[C@@H]34` [(+)-Matrine], in that order: under 0% and 14%.
Consider `CNCC(=O)c1ccc(O)c(O)c1` [Adrenalone HCl], for which the growth inhibition in the assay on KB-3-1 is 2.81%; in the assay on KB-V1, 12.6%.
For `COC[C@H]1OC(=O)c2coc3c2[C@@]1(C)C1=C(C3=O)[C@@H]2CCC(=O)[C@@]2(C)C[C@H]1OC(C)=O` [Wortmannin] the same measures were under 0% and 3.12%.
Turning to `CCCN1CCO[C@@H]2c3cc(O)ccc3OC[C@H]21`, the growth inhibition in the assay with KB-3-1 is under 0%; with KB-V1, 29%.
For `CN1[C@@H]2CC[C@H]1C[C@@H](OC(=O)C(CO)c1ccccc1)C2` (stereo partly specified) [Atropine], in that order: under 0% and 17.8%.
For `CCOC(=O)c1cncn1[C@H](C)c1ccccc1` [Etomidate] the same measures were 11.3% and 39.6%.
As to `CC(NC(C)(C)C)C(=O)c1cccc(Cl)c1` (stereo unspecified) [Amfebutamone HCl], the growth inhibition in the assay with KB-3-1 was 27.8%; in the assay on KB-V1, 17.1%.
For `Cn1cc(C2=C(c3cn(C4CCN(Cc5ccccn5)CC4)c4ccccc34)C(=O)NC2=O)c2ccccc21`, in that order: 42.1% and 32.6%.
For `Cc1cc(SCc2sc(-c3ccc(C(F)(F)F)c(F)c3)nc2C)ccc1OCC(=O)O` the same measures were 47.2% and 1.85%.
`C[C@H]1CCC/C=C/[C@@H]2C[C@H](O)C[C@H]2[C@H](O)/C=C/C(=O)O1` [Brefeldin A]: the growth inhibition in the assay with KB-3-1 and in the assay on KB-V1 was 100% each time.
For `COc1ccc(C(CN(C)C)C2(O)CCCCC2)cc1` (stereo unspecified) [Venlafaxine], the values for the growth inhibition with KB-3-1 and in the assay with KB-V1 were 14.1% and 38.1%, respectively.
With `C[N+]1(C)[C@@H]2C[C@@H](OC(=O)[C@H](CO)c3ccccc3)C[C@H]1[C@@H]1O[C@@H]12` [Methscopolamine], the growth inhibition in the assay with KB-3-1 amounted to 41.9%; in the assay on KB-V1, 22.5%.
For `C[C@]12CC[C@H](O)C[C@@H]1CC[C@@H]1[C@@H]2CC[C@]2(C)C(=O)CC[C@@H]12` [Epiandrosterone], in that order: 26.3% and 20%.
As to `C[N+](C)(C)CCCCCCCCCC[N+](C)(C)C` [Decamethonium Bromide], the figures for the growth inhibition in the assay on KB-3-1 and in the assay with KB-V1 were 10.3% and 8.05%, respectively.
For `O=C(O[C@H]1C[N+]2(CCCOc3ccccc3)CCC1CC2)C(O)(c1cccs1)c1cccs1` [Aclidinium Bromide] the same measures were under 0% and 12%.
For `C[C@H]1CNCCc2ccc(Cl)cc21` [Lorcaserin HCl], in that order: 4.24% and 5.62%.
For `CCCN1C[C@H](CSC)C[C@@H]2c3cccc4[nH]cc(c34)C[C@H]21` [Pergolide mesylate] the same measures were under 0% and 16.9%.
Turning to `Cc1cccc(Cc2c[nH]cn2)c1C` [Detomidine HCl], the growth inhibition was found to be 29.2% in the assay with KB-3-1 and 22.1% with KB-V1.
For `Cc1cccc(C)c1NC(=O)CN1CCCC1=O` [Nefiracetam] the same measures were 53.2% and 21.6%.
For `C=C1C[C@@H]2[C@H](CC[C@]3(C)C(=O)CC[C@@H]23)[C@@]2(C)C=CC(=O)C=C12` [Exemestane], in that order: 34.2% and 43.2%.
For `CC[C@@]1(O)C(=O)OCc2c1cc1n(c2=O)Cc2cc3ccccc3nc2-1` [Camptothecin] the same measures were 79.7% and 97.5%.
As for `CCN1CCN(C(=O)Cc2ccc(Nc3ncc(F)c(Nc4ccc(C(=O)Nc5ccccc5Cl)cc4)n3)cc2)CC1` [Aurora A Inhibitor I], the growth inhibition in the assay on KB-3-1 came out at 98%; in the assay on KB-V1 it was 94.9%.
In the case of `CNCC(O)c1ccc(O)cc1` (stereo unspecified) [Synephrine], the values for the growth inhibition with KB-3-1 and in the assay with KB-V1 were under 0% and 32.7%, respectively.
For `Cc1sc2c(c1C)C(c1ccc(Cl)cc1)=N[C@@H](CC(=O)OC(C)(C)C)c1nnc(C)n1-2`, the results for the growth inhibition in the assay on KB-3-1 and in the assay on KB-V1 were 71.5% and 67%, respectively.
For `CCN(CC)C(=O)c1ccc(C2=CC3(CCNCC3)Oc3cccc(O)c32)cc1`, in that order: 30% and 27%.
For `O=C(O)CNC(=O)c1c(O)c2ccccc2n(Cc2ccccc2)c1=O` the same measures were under 0% and 21.4%.
